Data as given in the supplement of paper PMC12217912.
This is one part of the list. Sequences were assembled here from the parent chain. Inactive controls read about 0.05.

B1: TEV protease; numbered along this chain (parent)
chain: MGESLFKGPRDYNPISSSICHLTNESDGHTTSLYGIGFGPFIITNKHLFRRNNGTLVVQSLHGVFKVKDTTTLQQHLVDGRDMIIIRMPKDFPPFPQKLKFREPQREERICLVTTNFQTKSMSSMVSDTSCTFPSGDGIFWKHWIQTKDGQCGSPLVSTRDGFIVGIHSASNFTNTNNYFTSVPKNFMELLTNQEAQQWVSGWRLNADSVLWGGHKVFMVKPEEPFQPVKEATQL

Variants of: B1
Test: raw area under fraction-flipped curve 0-4 h after induction (AUC4h, not background-subtracted), DNA-recorder readout of cleavage of the substrate (dimensionless); higher = more cleavage of the substrate by the protease variant
Details: temperature: 34 °C; time window: 0-4 h after rhamnose induction
Protocol: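 In vivo DNA recorder in E. coli TOP10(DE3) ΔrhaA at 34 °C. Each TEVp single-site mutant (parent TEVp 0) is paired with a single-site variant of the 7-mer TEVs (canonical ENLYFQ|S). The substrate sits between flexible linkers in a Bxb1-sfGFP-TEVs-SsrA fusion, so cleavage stabilises Bxb1 and speeds flipping of a recombination array, read by NGS. The value is the raw area under the fraction-flipped curve over 0-4 h after rhamnose induction (AUC4h), with ≥20 reads per time point. It is not background-subtracted; inactive controls average about 0.047.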
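Further: Bxb1 expression induced with 0.2% (w/v) L-rhamnose at OD600 near 0.5, cultures sampled hourly, flipped fraction per protease–substrate barcode pair counted by paired-end Illumina sequencing.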

Variant	area with substrate EALYFQS	area with substrate ECLYFQS	area with substrate EELYFQS	area with substrate EFLYFQS	area with substrate EGLYFQS	area with substrate EHLYFQS	area with substrate EILYFQS	area with substrate EKLYFQS	area with substrate ELLYFQS	area with substrate EMLYFQS	area with substrate EPLYFQS	area with substrate EQLYFQS	area with substrate ERLYFQS	area with substrate ESLYFQS	area with substrate EVLYFQS	area with substrate EWLYFQS	area with substrate EYLYFQS	area with substrate EDLYFQS	area with substrate ETLYFQS
S171P	0.0518	0.0512	0.0552	0.0583	0.0469	0.0581	0.0576	0.063	0.087	0.054	0.0428	0.0588	0.053	0.0575	0.0655	0.0611	0.0648		
S158R	0.0489	0.0583			0.0489	0.0583				0.052			0.0465		0.062		0.0322		
S158W	0.0496	0.0437	0.0492	0.0442	0.0542	0.0316	0.0589	0.0472	0.0515	0.0468		0.0507	0.0509	0.0547	0.0421	0.044	0.057	0.0473	0.0445
S158M	0.0407	0.0498	0.0524	0.0564	0.0454			0.0447	0.0379		0.0612	0.0602	0.0554	0.0511	0.0519	0.0776		0.0514	
L190Q	0.124	0.098	0.109											0.0968			0.0947		
L190E	0.0803	0.0806		0.0849	0.0545	0.112	0.0789	0.0816		0.112		0.107	0.107	0.082	0.0898	0.108	0.0881	0.123	0.085
S201V	0.1	0.102		0.0622		0.0943	0.119	0.0827	0.106	0.0943			0.0891		0.104	0.0807		0.136	0.12
V157M	0.119	0.034			0.0829		0.0919	0.0862	0.0856	0.095	0.112	0.0944	0.102	0.0946	0.106	0.097		0.0867	0.088
V157Y	0.084	0.0911	0.059			0.085	0.0663	0.0986			0.0956	0.0885	0.0699	0.0826			0.0861	0.0965	0.0865
P184D	0.0918	0.0408						0.0771	0.0694	0.0867		0.0959		0.0717	0.0893				
P184T	0.12	0.0962	0.118		0.0725		0.0901		0.0783		0.147			0.0871	0.0826		0.0833		0.0974
K148Y	0.128	0.115	0.0968	0.106	0.112		0.0672					0.13		0.0851			0.111		0.12
N178T	0.0489	0.063	0.0795			0.121	0.0749	0.0525		0.0682			0.0681	0.0733	0.0688	0.0694	0.0743	0.101	0.0777
N178F	0.193	0.189			0.208			0.169			0.227			0.184	0.212				
F180R	0.0459	0.056	0.0448	0.0673		0.0604						0.0435	0.0604	0.0688			0.0535	0.0544	
W203L	0.0892	0.128	0.0664		0.0487		0.0438	0.0742	0.0581			0.15		0.0641		0.0502			

Variant	area with substrate EALYFQS	area with substrate ECLYFQS	area with substrate EELYFQS	area with substrate EFLYFQS	area with substrate EGLYFQS	area with substrate EHLYFQS	area with substrate EILYFQS	area with substrate EKLYFQS	area with substrate ELLYFQS	area with substrate EMLYFQS	area with substrate EPLYFQS	area with substrate EQLYFQS	area with substrate ERLYFQS	area with substrate ESLYFQS	area with substrate EVLYFQS	area with substrate EWLYFQS	area with substrate EYLYFQS	area with substrate EDLYFQS	area with substrate ETLYFQS
N193W	0.0692	0.0702			0.0613			0.061	0.0803				0.0885		0.063				
D149C	0.122	0.0924				0.0946		0.118		0.125		0.106	0.0896		0.0997				
Q197S	0.089	0.082	0.132		0.0888					0.072		0.117	0.101		0.0825		0.101		0.0803
Q197P	0.119	0.081					0.0591	0.119	0.0757		0.11				0.0943	0.106	0.0872	0.0499	0.137
Q151A	0.115	0.0903	0.102			0.119		0.107	0.0974		0.0968	0.123	0.12		0.0858	0.0719	0.074	0.118	
R204A	0.143	0.131	0.107	0.129		0.141	0.124			0.15	0.202	0.117	0.119		0.0701	0.106	0.12	0.138	0.12
P155R	0.0662	0.0444	0.0497	0.0551			0.0463	0.0484	0.0486	0.0501	0.0585		0.0487	0.0568				0.0533	
M188D	0.104	0.1	0.12	0.0918		0.108		0.101			0.142		0.0858	0.103	0.105		0.117	0.118	
V183S	0.101	0.0899	0.0701				0.0783	0.113	0.09			0.0867		0.0872	0.0821	0.0778			
W199M	0.0796	0.0716	0.072	0.0795		0.0735	0.0523	0.0675					0.0658	0.0584	0.0733	0.0588		0.0948	0.0824
F173W	0.102	0.0965	0.0989	0.108			0.0912	0.104	0.0911	0.098	0.118	0.0989		0.0924	0.0881	0.0841	0.103	0.116	
F173Q	0.0994	0.0616										0.093	0.0667	0.103	0.0802		0.0898		
F173G	0.0461	0.0734			0.071		0.0871		0.0893	0.0752			0.0664	0.0797					
E189W	0.108	0.0985			0.0986		0.0645	0.16		0.108				0.1	0.0994	0.104		0.1	
E189P	0.0833	0.0329		0.106			0.0984	0.0813	0.0725		0.0784		0.114	0.0874		0.0738			
